The values that follow come from ChEMBL document CHEMBL4610118 (J Med Chem, 2020).

The target of data set [1] is CDK9/cyclin T1 (Homo sapiens, UniProt P50750).
The target of data set [2] is CDK2/Cyclin A1 (Homo sapiens, UniProt P24941). Briefly: biochemical.
Data set [3] concerns the target CDK7/Cyclin H/MNAT1 (Homo sapiens, UniProt P50613).
Data set [4] is described as follows: in vivo. The settings on record: Swiss albino, mouse, iv, 1 mg/kg.
A short description of data set [5]: in vivo. The settings on record: Swiss albino, mouse, iv, 1 mg/kg. This is another data set of the same source.
Data set [6] is described as follows: in vivo. The settings on record: Swiss albino, mouse, po, 10 mg/kg.
Data set [7] has as its system HAP1. Briefly: cells. The settings on record: Homo sapiens, HAP1, 72 h.
Data set [8] can be described thus: in vivo. The settings on record: Swiss albino, mouse, iv, 1 mg/kg. This is another data set of the same source.
Data set [9] in a line: in vivo. The settings on record: Swiss albino, mouse, po, 10 mg/kg. This is another data set of the same source.
The nature of data set [10]: in vivo. The settings on record: Swiss albino, mouse, ip, 5 mg/kg.
Data set [11] has as its system HAP1. Briefly: cells. The settings on record: Homo sapiens, HAP1, 72 h. This is another data set of the same source.
The target of data set [12] is Cyclin-dependent kinase 4/cyclin D1 (Homo sapiens, UniProt P11802).
The target in data set [13] is Cyclin-dependent kinase 5/CDK5 activator 1 (Homo sapiens, UniProt Q00535).
Data set [14] concerns HAP1. Briefly: cells. The settings on record: Homo sapiens, HAP1, 72 h. This is another data set of the same source.
Data set [15] can be described thus: in vivo. The settings on record: Swiss albino, mouse, ip, 5 mg/kg. This is another data set of the same source.
In data set [16] the target is CDK3/Cyclin E (Homo sapiens, UniProt Q00526).
Data set [17] has as its target Cyclin-dependent kinase 6 (Homo sapiens, UniProt Q00534).
Data set [18] addresses Cyclin-Y/Cyclin-dependent kinase 16 (Homo sapiens, UniProt Q00536). Nature of the data set: biochemical.
Data set [19] can be described thus: in vivo. The settings on record: Swiss albino, mouse, po, 10 mg/kg. The source holds these as a separate data set.
The test system of data set [20] is HAP1. Nature of the data set: cells. The settings on record: Homo sapiens, HAP1, 72 h. This is another data set of the same source.
Data set [21] in a line: in vivo. The settings on record: Swiss albino, mouse, ip, 5 mg/kg. The source holds these as a separate data set.
For data set [22], the target named is Cyclin-dependent kinase 13/Cyclin-K (Homo sapiens, UniProt Q14004).
Data set [23] addresses Cyclin-dependent kinase 14/Cyclin-Y (Homo sapiens, UniProt O94921). Briefly: biochemical.
Data set [24] has as its target Cyclin-dependent kinase 1/cyclin B1 (Homo sapiens, UniProt P06493).
Data set [25] in a line: in vivo. The settings on record: Swiss albino, mouse, iv, 1 mg/kg. The source holds these as a separate data set.
A short description of data set [26]: in vivo. The settings on record: Swiss albino, mouse, ip, 5 mg/kg. The source holds these as a separate data set.
Data set [27] is described as follows: in vivo. The settings on record: Swiss albino, mouse, iv, 1 mg/kg. The source holds these as a separate data set.
Data set [28] is described as follows: in vivo. The settings on record: Swiss albino, mouse, ip, 5 mg/kg. This is another data set of the same source.
Data set [29] has as its target CDK12/Cyclin K (Homo sapiens, UniProt Q9NYV4).
Data set [30] has as its target CDK8/Cyclin C (Homo sapiens, UniProt P49336).
Data set [31] can be described thus: in vivo. The settings on record: Swiss albino, mouse, po, 10 mg/kg. This is another data set of the same source.

In the case of `C=CC(=O)Nc1ccc(C(=O)N2CCC[C@@H](Nc3nc(C)c(SCc4ncc(C(C)(C)C)o4)s3)C2)cc1`, the IC50 (in general, the midpoint of a concentration-inhibition curve) in [1] is 2870 nM; in data set [2] it was > 10000 nM.
The matching figures for `C=CC(=O)Nc1ccc(C(=O)N2C[C@H](Nc3ncc(SCc4ncc(C(C)(C)C)o4)s3)CC[C@@H]2C)cc1`: 14.7 nM and 73.2 nM.
On to `C=CC(=O)N1CCC(C(=O)Nc2ncc(SCc3ncc(C(C)(C)C)o3)s2)CC1`, for which, in [3], the IC50 was determined as 457 nM.
For `C=CC(=O)Nc1ccc(C(=O)N2CC(Nc3ncc(SCc4ncc(C(C)(C)C)o4)s3)CC(F)(F)C2)cc1` (centres undefined), the figures for the IC50 in [1] and in data set [2] were 1100 nM and 1480 nM, respectively.
In turn, `C=CC(=O)Nc1cccc(C(=O)Nc2ncc(SCc3ncc(C(C)(C)C)o3)s2)c1` came in with a 50% inhibitory concentration (IC50) in [3] of 1140 nM.
Take `C=CC(=O)Nc1ccc(C(=O)N2CCC[C@@H](Nc3ncc(SCc4ncc(C(C)(C)C)o4)s3)C2)cc1C(F)(F)F`: the IC50 in data set [1] came out at 87.6 nM; in data set [2] it was 142 nM.
For `C=CC(=O)Nc1ccc(C(=O)N2CCC[C@@H](Nc3ncc(SCc4ncc(C(C)(C)C)o4)s3)C2)cc1F`, the IC50 was 138 nM in [1] and 211 nM in [2].
As for `C=CC(=O)Nc1ccc(C(=O)N2CCC[C@@H](Nc3ncc([S+]([O-])Cc4ncc(C(C)(C)C)o4)s3)C2)cc1` (some centres undefined), the IC50 in data set [1] was 9220 nM; in data set [2], > 10000 nM.
In turn, `C=CC(=O)Nc1ccc(C(=O)N2CCCC(C(=O)Nc3ncc(SCc4ncc(C(C)(C)C)o4)s3)C2)cc1` (centres undefined) registered an IC50 in data set [3] of 99 nM.
`C=CC(=O)Nc1ccc(C(=O)N2CCC[C@@H](Nc3ncc(SCc4ncc(C(C)(C)C)o4)s3)[C@H]2C)cc1`: the IC50 in data set [1] came out at 257 nM; in [2], 1420 nM.
For `C=CC(=O)Nc1ccc(C(=O)N2CCC[C@@H](Nc3ncc(Cl)c(SCc4ncc(C(C)(C)C)o4)n3)C2)cc1`, the IC50 in data set [1] and in [2] was > 10000 nM throughout.
As to `C=CC(=O)Nc1ccc(C(=O)N2CCC[C@@H](Nc3ncc(SCc4ccncc4)s3)C2)cc1`, the IC50 in [1] and in data set [2] was > 10000 nM in each case.
Take `C=CC(=O)Nc1ccc(C(=O)N2CCC[C@@H](Nc3ncc(SCc4ncc(C(C)(C)C)o4)s3)C2)cc1`: the clearance (as a rule, the rate of elimination divided by the concentration) in data set [4] turned out to be 102 mL/min/kg. For the same molecule, the figures for the Cmax in data set [5], in data set [28] and in data set [31] were 1310 ng/mL, 885 ng/mL and 556 ng/mL, respectively. In addition, the bioavailability (usually dose-corrected exposure relative to a reference, in per cent) in [6] is 25%; in [10], 49%. Moreover, the IC50 in data set [7] is 246 nM; in [11] it was 116 nM; in [12], > 10000 nM; in [13] it was 1130 nM; in data set [14], 10.2 nM; in data set [16], 366 nM. In addition, the IC50 in data set [17] is > 10000 nM; in data set [18], 3830 nM; in [20] it was 8.41 nM; in data set [22] it was 49 nM; in data set [23], 3130 nM; in data set [24] it was 1470 nM. Besides, the values for the IC50 in data set [29] and in [30] were 25 nM and 4490 nM, respectively. For the same molecule, the AUC(0-t) (usually the area under the concentration-time curve up to a stated or last time point) came to 162 ng·h/mL in data set [8], 412 ng·h/mL in data set [9] and 394 ng·h/mL in [21]. For the same molecule, the Tmax (commonly the time from dosing to the highest level) was found to be 4.8 min in data set [15] and 15 min in [19]. Moreover, the half-life (as a rule, the time needed for the level to fall by half in the phase considered) in data set [25] is 10.2 min; in [26] it was 9 min. Further, the Vd – broadly, a proportionality between amount in the body and measured concentration, not a real space – in data set [27] worked out at 0.73 L/kg.
